# Experimental data as given in PMC7444511, “Human granulocyte-colony stimulating factor (G-CSF)/stem cell factor (SCF) fusion proteins: design, characterization and activity” (PeerJ, 2020).
# B1: SCF monomer (ligand)
# chain: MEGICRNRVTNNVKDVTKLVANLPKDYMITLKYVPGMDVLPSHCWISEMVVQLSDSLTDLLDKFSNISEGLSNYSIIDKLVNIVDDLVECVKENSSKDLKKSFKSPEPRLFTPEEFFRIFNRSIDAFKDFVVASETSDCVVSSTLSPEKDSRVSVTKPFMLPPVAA
# modifications: E. coli-derived, non-glycosylated; non-covalent homodimer by SE-HPLC. Limits not printed: the printed MW 18,656.49 matches Met + mature […] (precursor […]), consistent with the fusion ma
# Columns and labels:
# [1] = biological target: SCF monomer (human, UniProt P21583 fragment); assay: SEC; calibrated SE-HPLC, TSK-gel G3000 SWXL, 0.1 M Na2HPO4, 0.1 M Na2SO4 pH 7.2, 0.6 mL/min, 22 °C; 10 µg of each protein loaded; details: both partners purified
# Chain of UniProt P21583 (P21583 26-214): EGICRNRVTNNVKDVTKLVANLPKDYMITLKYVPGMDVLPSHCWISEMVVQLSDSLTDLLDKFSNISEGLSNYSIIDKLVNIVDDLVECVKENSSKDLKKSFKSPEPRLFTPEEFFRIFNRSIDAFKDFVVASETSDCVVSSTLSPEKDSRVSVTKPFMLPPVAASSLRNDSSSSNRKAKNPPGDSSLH
# [2] = biological target: T1, c-kit (extracellular domain fused to the Fc region of human IgG1) (UniProt P10721 fragment); assay: total internal reflection ellipsometry (TIRE); receptor-Fc held by its Fc region on protein G immobilised covalently on an 11-MUA monolayer on gold; 10 µg/mL of each protein in PBS pH 7.4; standard fully reversible Langmuir kinetics model; details: both partners purified
# T1 construct: c-kit, the SCF receptor; extracellular domain; Chimeric protein held on protein G by its Fc region; also called SCF receptor; source: bought: Abcam
# T1 sequence (P10721 26-524): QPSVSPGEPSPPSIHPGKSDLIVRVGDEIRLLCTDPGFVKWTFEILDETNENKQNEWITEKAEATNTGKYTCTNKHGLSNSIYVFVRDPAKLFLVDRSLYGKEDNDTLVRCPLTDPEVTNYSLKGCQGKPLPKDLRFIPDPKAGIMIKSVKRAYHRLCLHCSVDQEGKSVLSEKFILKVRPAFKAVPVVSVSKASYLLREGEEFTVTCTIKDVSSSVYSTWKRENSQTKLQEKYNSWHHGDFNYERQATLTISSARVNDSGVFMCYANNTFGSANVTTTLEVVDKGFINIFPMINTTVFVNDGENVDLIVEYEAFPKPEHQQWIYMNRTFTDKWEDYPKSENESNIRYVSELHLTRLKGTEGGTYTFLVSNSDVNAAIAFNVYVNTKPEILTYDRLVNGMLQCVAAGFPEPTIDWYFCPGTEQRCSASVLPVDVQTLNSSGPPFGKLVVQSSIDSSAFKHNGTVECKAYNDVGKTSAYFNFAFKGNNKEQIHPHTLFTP
binder,measurement,setting,value
B1,stoichiometry N,[1],2
same,Ka,[2],950000 M⁻¹
same,Kd,[2],1040 nM
same,koff,[2],0.0143 s⁻¹
same,kon,[2],13700 M⁻¹ s⁻¹
